Source: PubChem BioAssay AID588591 (National Center for Advancing Translational Sciences (NCATS), 2011)
Among all 390,000 compounds or so, about 4,700 (1.2%) were called active. The shares of active, inactive and inconclusive entries below differ from those in the screen. Calls come from the whole dose curve; as a rule, active = well fitted inhibition curve with a large enough effect; inconclusive = small, poorly fitted or top-dose-only effect, or another doubt; inactive = no such curve, though single readings can be large or run the other way. Potencies beside an inconclusive call are fits to weak or partial responses and may not hold up.

Target: DNA polymerase eta (Homo sapiens) (UniProt Q9Y253)
Chain of UniProt Q9Y253 (Q9Y253 whole entry, looked up): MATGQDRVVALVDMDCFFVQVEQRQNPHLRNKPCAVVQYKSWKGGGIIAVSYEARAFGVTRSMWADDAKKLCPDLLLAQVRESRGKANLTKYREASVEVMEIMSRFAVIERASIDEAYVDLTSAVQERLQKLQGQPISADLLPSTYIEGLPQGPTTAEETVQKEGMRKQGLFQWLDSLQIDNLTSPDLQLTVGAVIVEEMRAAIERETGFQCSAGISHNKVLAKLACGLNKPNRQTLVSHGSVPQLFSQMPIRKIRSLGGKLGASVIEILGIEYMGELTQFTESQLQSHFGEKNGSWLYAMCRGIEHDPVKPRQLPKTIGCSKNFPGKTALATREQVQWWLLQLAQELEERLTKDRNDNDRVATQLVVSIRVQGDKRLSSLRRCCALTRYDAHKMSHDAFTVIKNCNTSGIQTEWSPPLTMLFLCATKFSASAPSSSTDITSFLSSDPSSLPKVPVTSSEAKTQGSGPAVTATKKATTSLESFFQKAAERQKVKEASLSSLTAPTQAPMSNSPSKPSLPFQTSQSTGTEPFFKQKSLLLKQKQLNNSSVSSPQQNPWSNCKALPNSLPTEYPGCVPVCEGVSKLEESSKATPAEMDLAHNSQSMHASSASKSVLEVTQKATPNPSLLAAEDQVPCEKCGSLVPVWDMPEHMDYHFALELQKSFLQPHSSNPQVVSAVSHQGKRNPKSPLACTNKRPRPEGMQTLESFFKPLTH
Assay: qHTS for Inhibitors of Polymerase Eta
Conditions: recombinant Pol eta, fluorescent DNA replication assay; series mostly up to 114 µM
Summary of the method: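 Fluorescent replication assay: 50 nM final substrate added after a 15 min room-temperature compound preincubation with 10 nM enzyme. Signal taken at 0 min and again at 10 min.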
Potency is the fitted concentration of half-maximal effect; tags give direction and shape of the fitted curve.

Question: How did the Potency turn out when `COc1cc(/C=N/NC(N)=O)ccc1OCC(=O)Nc1ccc(C)c(C)c1` was run?
Answer: active: 28.2 µM

Question: For `CC(=O)c1ccc(NC(=O)Cn2nc(C(F)(F)F)c3c2CCCC3)cc1`, which Potency is on record?
Answer: inconclusive: 79.4 µM [inhibitor, partial curve, poor fit]

Question: For `C=CCc1cc(/C=C/c2nc(O)c([N+](=O)[O-])c(=O)[nH]2)cc(OC)c1O`, which Potency is on record?
Answer: active: 11.2 µM

Question: For `CCOC(=O)c1nnn(CC(=O)N2N=C(c3cc(C)ccc3C)CC2c2ccc(OC)cc2)c1C(=O)OCC` (stereo unspecified), which Potency is on record?
Answer: inconclusive: 3.16 µM [inhibitor, partial curve, poor fit]

Question: How did the Potency turn out when `COc1ccc(C)cc1-n1nnnc1SC/C(O)=C(\C#N)c1nc2ccccc2[nH]1` was run?
Answer: inconclusive: 22.4 µM [inhibitor, single point]

Question: With `Cc1nc2ccccn2c1C(=O)N/N=C/c1ccc(CNC(=O)C(=O)Nc2ccccc2)o1` as the compound, how does the Potency read?
Answer: inconclusive: 11.2 µM [inhibitor, partial curve, poor fit]

Question: Which Potency does the source give for `O=C(CSc1nnc2scc(-c3ccccc3)n12)Nc1nsc(-c2ccccc2)n1` here?
Answer: inconclusive: 56.2 µM [inhibitor, partial curve, poor fit]

Question: `N#C/C(=C\c1ccc(C(=O)O)cc1)c1nc2sc3c(c2c(=O)[nH]1)CCCC3` was tested. Which Potency did it give?
Answer: active: 20 µM

Question: Which Potency does the source give for `O=C1/C(=N\S(=O)(=O)c2cccs2)C([n+]2ccccc2)=C([O-])c2ccccc21` here?
Answer: active: 31.6 µM

Question: How did the Potency turn out when `CCOC(=O)c1c(S(=O)(=O)NCC(=O)N(C)c2ccc(C)cc2)c(C)n(C)c1C` was run?
Answer: active: 44.7 µM

Question: For `COc1ccc(/C=C/C(=O)c2ccc(Cl)s2)cc1O`, which Potency is on record?
Answer: inconclusive: 25.1 µM [inhibitor, partial curve]

Question: `Fc1ccc(C2CCCN2Cc2nc(Cc3ccccc3F)no2)cc1` (stereo unspecified) was tested. Which Potency did it give?
Answer: inconclusive: 79.4 µM [inhibitor, partial curve, poor fit]

Question: For `CC(=O)c1ccc(N=Nc2ccc(C)cc2)cc1`, which Potency is on record?
Answer: inactive

Question: How did the Potency turn out when `COc1cccc(Nc2nc3ccc(C(=O)c4ccccc4)cc3n3c(C)nnc23)c1` was run?
Answer: inconclusive: 89.1 µM [inhibitor, partial curve, poor fit]

Question: For `O=C(CSc1nc2ccccc2c(=O)n1-c1ccccc1)NC(=O)CN1CCCC1=O`, which Potency is on record?
Answer: active: 44.7 µM

Question: How did the Potency turn out when `COc1cc(/C=C2\SC(=O)N(CCNC(=O)c3cnc(C)cn3)C2=O)cc(OC)c1OC` was run?
Answer: inconclusive: 22.4 µM [inhibitor, partial curve]

Question: With `Cc1ccc(NC(=O)C2CC(=O)N(c3ccc4c5c(cccc35)CC4)C2)cc1` (stereo unspecified) as the compound, how does the Potency read?
Answer: inconclusive: 31.6 µM [inhibitor, partial curve]

Question: Which Potency does the source give for `Nc1cc2c(cc1Br)-c1ccc(F)cc1C2=O` here?
Answer: inconclusive: 79.4 µM [inhibitor, partial curve]

Question: For `Cc1ccsc1CN(C)C(=O)c1cc(S(=O)(=O)N2CCOCC2)ccc1N1CCCC1`, which Potency is on record?
Answer: inconclusive: 89.1 µM [inhibitor, single point]

Question: How did the Potency turn out when `O=C(CCN1C(=O)/C(=C\C=C\c2ccccc2)SC1=S)Nc1cccc(C(=O)O)c1` was run?
Answer: active: 22.4 µM

Question: How did the Potency turn out when `CCOC(=O)Cn1cnc2sc3c(c2c1=O)CCC3` was run?
Answer: inconclusive: 15.8 µM [inhibitor, full curve, poor fit]

Question: For `N#Cc1c(NC(=O)CCCC(=O)O)sc2c1CCCCC2`, which Potency is on record?
Answer: inconclusive: 22.4 µM [inhibitor, partial curve, poor fit]

Question: How did the Potency turn out when `Cc1ccc(C)c(N2CCN(S(=O)(=O)c3cc4c(cc3C)NC(=O)CO4)CC2)c1` was run?
Answer: inactive

Question: For `CCn1c(SCC(=O)Nc2nc3ccccc3s2)nnc1-c1ccc(Br)cc1`, which Potency is on record?
Answer: inconclusive: 15.8 µM [inhibitor, partial curve, poor fit]

Question: With `COc1ccc(Cl)cc1NC(=O)CN(C)C(=O)c1ccc2c(c1)CC(c1ccccc1)OC2=O` (stereo unspecified) as the compound, how does the Potency read?
Answer: inconclusive: 79.4 µM [inhibitor, partial curve, poor fit]

Question: Which Potency does the source give for `Cc1ccc(CNC(=O)c2nnn(CC(=O)Nc3cccc(C)c3C)c2N)cc1` here?
Answer: inconclusive: 56.2 µM [inhibitor, partial curve, poor fit]

Question: For `O=C(NCc1ccco1)c1cccnc1-c1nc2ccccc2s1`, which Potency is on record?
Answer: inconclusive: 25.1 µM [inhibitor, partial curve]

Question: With `CCN(CC(=O)Nc1c(F)cccc1F)C(=O)c1ccc(-c2ccccc2)cc1` as the compound, how does the Potency read?
Answer: inconclusive: 44.7 µM [inhibitor, partial curve, poor fit]

Question: `COc1ccc(/C=N/Nc2nnc(Cc3ccc(OC)c(OC)c3)c(=O)[nH]2)cc1` was tested. Which Potency did it give?
Answer: inconclusive: 31.6 µM [inhibitor, partial curve, poor fit]

Question: Which Potency does the source give for `O=C(N/N=C/c1ccc(-c2cccc(C(F)(F)F)c2)o1)c1ccccc1O` here?
Answer: inconclusive: 12.6 µM [inhibitor, full curve, poor fit]

Question: For `CCOC(=O)c1cnc2ccc(OCC)cc2c1N1CCN(c2ccccc2OC)CC1`, which Potency is on record?
Answer: inconclusive: 20 µM [inhibitor, partial curve, poor fit]

Question: Which Potency does the source give for `O=C(N/N=C/c1ccc(O)cc1)c1ccc(COc2cc(Cl)ccc2Cl)o1` here?
Answer: inconclusive: 15.8 µM [inhibitor, partial curve]

Question: `COc1ccc(OC)c(NC(=O)C(C#N)=Cc2ccco2)c1` was tested. Which Potency did it give?
Answer: inconclusive: 25.1 µM [inhibitor, full curve, poor fit]

Question: Which Potency does the source give for `O=c1c(C(c2ccccc2)c2c(O)nc3n(c2=O)CCCS3)c(O)nc2n1CCCS2` here?
Answer: inconclusive: 39.8 µM [inhibitor, single point]

Question: How did the Potency turn out when `CCCCCCCCN1[C@@H](CC(=O)OCC)c2cc(F)ccc2S1(=O)=O` was run?
Answer: inconclusive: 79.4 µM [inhibitor, partial curve, poor fit]

Question: `NS(=O)(=O)c1cccc(NC(=O)CCN2C(=O)C3CCCCC3C2=O)c1` (stereo unspecified) was tested. Which Potency did it give?
Answer: inconclusive: 0.631 µM [inhibitor, full curve, poor fit]

Question: How did the Potency turn out when `CC(=O)c1ccc(NC(=O)Cn2c(=O)n(Cc3ccco3)c(=O)c3sc4ccccc4c32)cc1` was run?
Answer: inactive

Question: For `CCN1C(=NCc2cccc(Cl)c2)N[C@@H](c2cccc(F)c2)C(C(=O)OC)=C1C`, which Potency is on record?
Answer: inconclusive: 79.4 µM [inhibitor, partial curve, poor fit]

Question: How did the Potency turn out when `O=C(O)CC/C(=N\Nc1ccc(S(=O)(=O)N2CCCC2)cc1[N+](=O)[O-])c1cccs1` was run?
Answer: inconclusive: 39.8 µM [inhibitor, single point]

Question: Which Potency does the source give for `CCOc1sc2nc(C)n(CC(=O)Nc3cccc(C)c3)c(=O)c2c1C` here?
Answer: inconclusive: 89.1 µM [inhibitor, partial curve, poor fit]

Question: With `COc1cccc(-c2cn3nc4c(nc3n2)CCCC4)c1` as the compound, how does the Potency read?
Answer: inconclusive: 31.6 µM [inhibitor, single point]

Question: Which Potency does the source give for `CCN1CCCC(NC(=O)c2cc([N+](=O)[O-])ccc2OC)C1` (stereo unspecified) here?
Answer: inconclusive: 89.1 µM [inhibitor, partial curve, poor fit]

Question: Which Potency does the source give for `O=C1/C(=C/N(C(=O)c2ccco2)c2ccc(Cl)cc2)Sc2ccccc21` here?
Answer: inconclusive: 17.8 µM [inhibitor, single point]

Question: With `C=CCOC(=O)C1=C[C@@H](c2ccc(Br)cc2)C[C@@H](OCc2ccc(CO)cc2)O1` as the compound, how does the Potency read?
Answer: inactive

Question: With `N#CCC(=O)Nc1ccc(C(=O)Nc2ccc3c(c2)OCO3)cc1` as the compound, how does the Potency read?
Answer: inconclusive: 17.8 µM [inhibitor, full curve]

Question: For `C=C(C)COc1ccc(-c2nc(N)ncc2-c2ccc(OC)c(OC)c2)c(O)c1`, which Potency is on record?
Answer: inconclusive: 25.1 µM [inhibitor, partial curve, poor fit]

Question: How did the Potency turn out when `Cc1cccc(OCC(=O)NCC(=O)N=Nc2c(O)[nH]c3ccc([N+](=O)[O-])cc23)c1` was run?
Answer: inconclusive: 56.2 µM [inhibitor, partial curve, poor fit]

Question: How did the Potency turn out when `COc1ccc(CC(=O)OCC(=O)Nc2ncc(Cl)cc2Cl)cc1` was run?
Answer: inconclusive: 14.1 µM [inhibitor, full curve, poor fit]

Question: `C=CCN(CC(=O)c1sc(C(=O)OCC)nc1C)c1cccc(Br)c1` was tested. Which Potency did it give?
Answer: inactive

Question: `CCOC(=O)c1c(C)[nH]c(C(=O)COC(=O)[C@H](C)N2C(=O)C3CCCCC3C2=O)c1C` (stereo partly specified) was tested. Which Potency did it give?
Answer: inconclusive: 100 µM [inhibitor, partial curve, poor fit]

Question: How did the Potency turn out when `O=C(c1cccc(S(=O)(=O)N2CCc3ccccc32)c1)N1CCN(c2ccccc2)CC1` was run?
Answer: inactive

Question: How did the Potency turn out when `c1ccc(-c2ccccc2OCCN2CCCCC2)cc1` was run?
Answer: inconclusive: 3.55 µM [inhibitor, partial curve, poor fit]

Question: With `COc1ccccc1CNc1nc(-c2ccco2)nn1S(=O)(=O)c1ccc2ccccc2c1` as the compound, how does the Potency read?
Answer: inactive

Question: Which Potency does the source give for `O=C(c1cc2nc(-c3ccccc3)cc(-c3ccccc3)n2n1)N1CCCC1` here?
Answer: inconclusive: 17.8 µM [inhibitor, full curve, poor fit]

Question: For `CCOC(=O)Cc1cn2c(=O)cc(CSCC(=O)Nc3ccc(C)c(C)c3)nc2s1`, which Potency is on record?
Answer: active: 89.1 µM

Question: Which Potency does the source give for `O=C(O)Cn1cc(/C=N/Nc2ccc([N+](=O)[O-])cn2)c2ccccc21` here?
Answer: inconclusive: 56.2 µM [inhibitor, partial curve, poor fit]

Question: How did the Potency turn out when `O=[N+]([O-])c1ccc(N2CCCCC2)nc1N1CCCCC1` was run?
Answer: inconclusive: 89.1 µM [inhibitor, partial curve, poor fit]

Question: For `CCc1ccc(CN(Cc2ccco2)c2cnc(S(C)(=O)=O)nc2C(=O)Nc2cccc(C)c2)cc1`, which Potency is on record?
Answer: inactive

Question: Which Potency does the source give for `COCCOC(=O)C1=C(C)N(c2ccccc2)C(=O)NC1c1cccc([N+](=O)[O-])c1` (stereo unspecified) here?
Answer: inconclusive: 79.4 µM [inhibitor, partial curve, poor fit]

Question: How did the Potency turn out when `COc1cc([N+](=O)[O-])cc(/C=N/NC(=O)c2cc(C)nc3ccccc23)c1O` was run?
Answer: inactive

Question: For `COCc1cc(CN2CCCC(C(=O)Nc3ccc(-c4ccco4)cc3)C2)ccc1OC` (stereo unspecified), which Potency is on record?
Answer: inconclusive: 44.7 µM [inhibitor, partial curve, poor fit]
